Assay results as given in PubChem BioAssay (NCATS).
“And” between values parts separate entries of the source, which are not always exact repeats. Identical values can stand only once. Inconclusive results, whose numbers are uncertain, are shown with a selection of clear calls. Potencies of inconclusive entries are doubtful fits and often do not repeat. The source made the active and inactive calls. Unless noted, calls come from the whole dose curve; as a rule, active = well fitted curve in the direction sought with a large enough effect in the repeat runs; inconclusive = weak or mixed curves; inactive = no such curve, though single readings can be large; an effect the other way counts as inactive or inconclusive.
Potency is the fitted concentration of half-maximal effect; tags give direction and shape of the fitted curve.

Biological target: Nuclear receptor ROR-gamma (Homo sapiens) (UniProt P51449)
Chain of UniProt P51449 (P51449 whole entry, looked up): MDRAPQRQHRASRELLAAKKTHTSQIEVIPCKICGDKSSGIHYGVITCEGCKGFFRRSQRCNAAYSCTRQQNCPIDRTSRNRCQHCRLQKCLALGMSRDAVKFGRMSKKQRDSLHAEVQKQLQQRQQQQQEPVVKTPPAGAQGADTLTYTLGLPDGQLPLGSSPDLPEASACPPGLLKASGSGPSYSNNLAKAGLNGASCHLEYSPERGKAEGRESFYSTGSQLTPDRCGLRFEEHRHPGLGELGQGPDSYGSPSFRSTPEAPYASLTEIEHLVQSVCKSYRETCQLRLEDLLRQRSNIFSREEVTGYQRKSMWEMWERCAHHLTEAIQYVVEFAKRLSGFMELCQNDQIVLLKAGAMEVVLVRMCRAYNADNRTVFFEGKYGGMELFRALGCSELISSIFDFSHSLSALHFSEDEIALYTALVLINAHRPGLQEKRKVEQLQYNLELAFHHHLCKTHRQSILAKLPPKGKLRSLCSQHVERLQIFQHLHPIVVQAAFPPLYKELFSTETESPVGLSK
Assay: qHTS assay for small molecule antagonists of the retinoid-related orphan receptor gamma (ROR-gamma) signaling pathway (AID 651802; active = well fitted curve in the direction sought with a large enough effect; inconclusive = small, poorly fitted or top-dose-only effect, or another doubt; inactive = no such curve, though single readings can be large; an effect the other way counts as inactive or inconclusive; note: nearly all actives have a fitted effect of over 60% in size)
Settings: ROR-gamma antagonist cell reporter assay; series mostly up to 92.2 µM
Method in brief: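 Luminescence (One-Glo, 30 min RT) measured 16 h after compound addition and doxycycline induction at 37C. Reporter: RORE-luciferase under TET-inducible ROR-gamma in CHO cells.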
In the case of `c1cc2c3c(c1)ccc1cccc(c13)C2`, the Potency was “inactive”.
With `C/C(Cl)=C/CCl` the Potency was “inactive”.
For `CC(=O)OC(C(=O)c1ccccc1)c1ccccc1` (centres undefined), the Potency was inconclusive: 29.8 µM [inhibitor, partial curve, poor fit].
In the case of `c1ccc2c(c1)ccc1ccccc12`, the Potency was “inactive”.
In the case of `CC(=O)c1ccc(Cl)c(Cl)c1Cl`, the Potency was inconclusive: 0.106 µM [inhibitor, full curve, poor fit].
For `CCC(Cl)CC(Cl)C(Cl)C(Cl)C(Cl)C(C)Cl` (centres undefined), the Potency was inconclusive: 33.5 µM [inhibitor, partial curve, poor fit].
For `Cc1ccc(C(=O)O)cc1[N+](=O)[O-]`, the Potency was inconclusive: 11.9 µM [inhibitor, single point].
For `C1CCCNCC1`, the Potency was “inactive”.

Test system: not listed separately
Assay: qHTS assay for small molecule agonists of the antioxidant response element (ARE) signaling pathway measured by Nrf2-dependant transcriptional activity (AID 720636)
Settings: ARE-luc HepG2, Nrf2 luciferase reporter, 16 h; series mostly up to 92.4 µM
Method in brief: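 ARE-luc HepG2 cells carrying an Nrf2-responsive luciferase reporter, in medium with 1% dialyzed FBS, exposed to compound for 16 hr at 37 C, 5% CO2. Luminescence read 30 min after ONE-Glo addition.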
For `Nc1ccc2c(c1)C(=O)c1ccccc1C2=O`, the Potency was inconclusive: 596 nM [activator, full curve, poor fit] and inconclusive: 10.9 µM [activator, partial curve, poor fit].
With `O=C(O)c1cc(N=Nc2ccc([N+](=O)[O-])cc2)ccc1O` the Potency was inconclusive: 750 nM [activator, full curve, poor fit].
With `Nc1ccc(N=Nc2ccccc2)c(N)c1` the Potency was inconclusive: 668 nM [activator, full curve, poor fit].
For `Cc1cc2nc(N)sc2cc1C`, the Potency was inconclusive: 1060 nM [activator, full curve, poor fit].
In the case of `c1ccc(SCCSc2ccccc2)cc1`, the Potency was inconclusive: 5960 nM [activator, full curve, poor fit].
With `O=[N+]([O-])c1ccccc1Nc1ccccc1` the Potency was “inactive”.

Test system: not listed separately
Assay: qHTS assay for small molecule antagonists of the retinoid-related orphan receptor gamma (ROR-gamma) signaling pathway - cell viability counter screen (AID 720652);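 note: compound exposure lasted 16 hr before ATP read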
Settings: RORgamma reporter cell line viability counter screen; series mostly up to 92.2 µM
Method in brief: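 Cytotoxicity counter screen: intracellular ATP (CellTiter-Glo luminescence) measured in the doxycycline-induced CHO RORE-luciferase reporter line after 16 hr compound exposure at 37 C, 5% CO2.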
For `CCNc1ccccc1`, the Potency was inconclusive: 66.8 µM [rising, partial curve, poor fit].
For `OC1CCCCC1`, the Potency was “inactive”.
In the case of `c1ccc2c(c1)ccc1ccccc12`, the Potency was “inactive”.
With `CCC(Cl)CC(Cl)C(Cl)C(Cl)C(Cl)C(C)Cl` (centres undefined) the Potency was inconclusive: 66.8 µM [cytotoxic, partial curve].
With `C=C(C)C1CC=C(C)C(OC(C)=O)C1` (centres undefined) the Potency was “inactive”.
